The other results are listed elsewhere or left out. These are further read-outs of the screen, such as a control signal, another cell line or another target. No call is given for them.

This passage reports fold increase and viability results from PubChem BioAssay AID1956 (SRMLSC, 2009).

A short description of the experiment: compounds boosting herpes simplex virus growth – fold increase, host cell viability (AID 1956). Note: tested in PC3 cells. The following applies: HSV replication augmentation in cells; fold increase: measured here: primary screen fold increase 10 uM, at 10 µM, stronger effect = higher value; viability: measured here: host cell viability series, at 25 µM, stronger effect = lower value.
The term viability denotes a read-out of living cells in per cent, often relative to untreated cells. Take `O=c1c2c(ncn2C2CCCC2)n(Cc2ccccc2)c(=O)n1CCOc1ccc(Br)cc1`: the fold increase turned out to be 1.44 and the viability came to 85.4%. For `CCN(CC)c1ccc(/C=C2\C(=O)c3ccc(C(=O)O)cc3C2=O)cc1` the same measures were 1.42 and 96.3%.

As for `CCOC(=O)/C(=C\C=C1/Sc2cc(OCC)c(OCC)cc2N1CC)C(C)=O`, the fold increase stood at 7.27 and the viability was 61.3%.

As for `N#C/C(=C\c1ccc(OC(=O)c2ccccn2)cc1)C(N)=O`, the fold increase came out at 1.38 and the viability was 99.9%.

Turning to `CC1CCN(c2ccccc2NC(=S)NC(=O)c2ccco2)CC1`, the fold increase was 1.49 and the viability came to 88.7%. In the same order, the values of `CCC(O)(CC)C(=O)N/N=C/c1cc(Br)cc(Br)c1O` are 1.63 and 93.4%. For `Cc1ccc(N2C(=O)C3C(C(=O)c4ccccc4)=NN(c4ccccc4)C3C2=O)cc1` (stereo unspecified) the same measures were 2.38 and 95.7%. Consider `CC1=NN(c2nc(-c3ccc(C)cc3)cs2)C(=O)C1N=Nc1ccccc1O` (stereo unspecified), for which the fold increase was determined as 4.9. Turning to `CC(C)(C)C1c2[nH]c3ccccc3c2CCN1Cc1cccc(OCCO)c1` (stereo unspecified), the fold increase was 1.55 and the viability was 96.2%. In the same order, the values of `COCCNC(=O)/C(C#N)=C/c1ccc(N2CCOCC2)o1` are 1.53 and 92%. In the same order, the values of `COc1cc(C2C(C#N)=C(N)Oc3cc(N(C)C)ccc32)cc2c1OCO2` (stereo unspecified) are 1.5 and 45.5%.

Regarding `COCc1ccc(C(=O)N2CCCC(C(=O)c3cc(F)ccc3F)C2)s1` (stereo unspecified), the fold increase turned out to be 1.37 and the viability came to 94.2%. On to `O=C(c1ccco1)N1CCN(CC(=O)N2CCCc3c2c(=O)oc2ccc(O)cc32)CC1`, for which the fold increase was found to be 1.5 and the viability is 92.3%. For the molecule `O=C(NCc1ccccn1)C1CCCN(S(=O)(=O)c2ccccc2)C1` (stereo unspecified), the fold increase amounted to 1.36 and the viability was determined as 101%. In the same order, the values of `O=c1[nH]c2ccccc2nc1/C=C/c1ccc(O)cc1` are 1.64 and 79.4%.

Turning to `S=c1nc(C2CC2)[nH]c2ccccc12`, the fold increase was 1.24. On to `O=C1c2ccccc2S(=O)(=O)c2cc(N3CCC(C(=O)N4CCCCC4)CC3)ccc21`, for which the fold increase came to 1.33 and the viability is 93%. For the molecule `COC(=O)N/N=C/c1cc(N=Nc2ccccc2Cl)ccc1O`, the fold increase is 1.54 and the viability came to 89.7%. Consider `C=CCN=C(NC#N)SCCc1ccccc1`, for which the fold increase came to 1.34 and the viability was 95.1%. For `Cc1nn(-c2ccccc2)c(C)c1NC(=O)COc1ccc2ccccc2c1` the same measures were 1.34 and 89.7%. For `CS(=O)(=O)Oc1ccc2c(c1)O/C(=C\C=C\c1ccccc1)C2=O` the same measures were 5.77 and 79.5%.

In the case of `CC(C)C[C@@H]1NC(=O)[C@H](CO)NC(=O)c2cc([N+](=O)[O-])cc(I)c2OCC[C@@H](C(N)=O)NC1=O`, the fold increase worked out at 1.35 and the viability was 95.2%. For `Cc1cccc(S(=O)(=O)Nc2cccc3c2C(=O)c2ccccc2-3)c1` the same measures were 1.41 and 102%. Consider `CC(Cc1ccccc1)NC(=S)CN1CCCC1=S` (stereo unspecified), for which the fold increase came out at 1.57 and the viability was determined as 101%. For `CCCCc1nc2ccccc2c(NC(=O)CN2CCCC2)c1CCC` the same measures were 1.34 and 86.9%. In the same order, the values of `Cc1ccc2[nH]c3c(c2c1)CN(C(=O)CN1CC(C)OC(C)C1)CC3` (stereo unspecified) are 1.73 and 94.8%.

Consider `Cc1ccccc1NC(=O)/C=C/c1ccc([N+](=O)[O-])s1`, for which the fold increase is 4.7 and the viability amounted to 53.2%. With `Nc1cccn2c(-c3ccc(Cl)c(Cl)c3)cnc12`, the fold increase came out at 1.51 and the viability came out at 89.2%.

The molecule `CC(=O)c1sc2nc(CSc3nnnn3-c3ccccc3)[nH]c(=O)c2c1C` yielded a fold increase of 1.38. In the case of `Oc1ccc(N=Nc2cccc(C(F)(F)F)c2)cc1C=Nc1ccc(N2CCOCC2)cc1`, the fold increase came out at 1.56 and the viability worked out at 40.6%. As to `CCOc1cc(/C=N/NC(=O)Cn2nc([N+](=O)[O-])cc2C)ccc1OCc1ccc(F)cc1`, the fold increase amounted to 1.25.

Turning to `CCN1C(=O)/C(=C/C=C2\C=CN(CC)c3ccccc32)SC1=S`, the fold increase turned out to be 1.68 and the viability turned out to be 74.6%. In the same order, the values of `CC1C/C(=C/c2cccn2C)C(=O)/C(=C/c2cccn2C)C1` (stereo unspecified) are 4.6 and 75.3%. In the same order, the values of `CC1(c2ccccc2)CC(C)(C)N2C(=O)/C(=C3\SC(=S)NC3=O)c3cccc1c32` (stereo unspecified) are 1.34 and 81.7%. For `N#CC(C#N)=C1C=C2C=C(N3CCCCC3)CCC2CC1` (stereo unspecified) the same measures were 7.32 and 95.6%. With `c1cncc(-c2nc3ccccc3o2)c1`, the fold increase was 1.4 and the viability came out at 103%. Regarding `Cc1cccc(-n2c(CNC(=O)c3ccc(S(=O)(=O)N4CCCC4)cc3)n[nH]c2=S)c1`, the fold increase is 1.41 and the viability stood at 103%. For `CCOc1ccc(CN(C)CC(=O)NNC(=O)c2ccc(Cl)cc2)cc1OC` the same measures were 1.33 and 101%.

`COc1cccc(NC(=O)CSc2nnc(-c3ccoc3C)n2-c2ccccc2)c1` registered a fold increase of 1.14. In the case of `Cc1cccc(N=C2NC(=O)/C(=C/c3cccn3C)S2)c1C`, the fold increase came to 1.33 and the viability is 77.7%.

Turning to `CCCOC(=O)CSC1=C(C#N)C(c2ccccc2OCC)C(C#N)C(=O)N1` (stereo unspecified), the fold increase is 1.23. For the molecule `O=C(NCc1cccs1)c1nc2c(nnn2Cc2ccc(F)cc2)c(=O)[nH]1`, the fold increase turned out to be 1.37 and the viability is 95.9%. For `O=C1/C(=C/c2ccco2)Oc2c1ccc(O)c2CN1CCCCC1`, the fold increase was determined as 1.37 and the viability was 95.6%. For `O=c1[nH]c(-[n+]2ccccc2)c(/C=N/NC([S-])=Nc2ccccc2)s1` the same measures were 1.92 and 98.6%. As for `CCN(CC)C(=O)CSC(=Nc1ccccc1F)NC#N`, the fold increase amounted to 1.42 and the viability was found to be 102%.

Consider `Nc1ccccc1Nc1cc(-c2cccc(Cl)c2)nn1-c1ccccc1`, for which the fold increase amounted to 1.41 and the viability was determined as 91.5%.
